Publication PMC4336329 (PLoS ONE, 2015)
About 14,000 (4.5%) of roughly 310,000 compounds showed an effect of 50% or more. Effects have a minus sign here. Some of the results follow.

molecular target: human ether-à-go-go-related gene (hERG) potassium channel (human, UniProt Q12809); assay: primary screen, population patch clamp on CHO cells stably expressing hERG
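Also: peak tail current of the secondary pulse compared with the same well before compound.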

Sequence of human ether-à-go-go-related gene (hERG) potassium channel (Q12809 whole entry, looked up): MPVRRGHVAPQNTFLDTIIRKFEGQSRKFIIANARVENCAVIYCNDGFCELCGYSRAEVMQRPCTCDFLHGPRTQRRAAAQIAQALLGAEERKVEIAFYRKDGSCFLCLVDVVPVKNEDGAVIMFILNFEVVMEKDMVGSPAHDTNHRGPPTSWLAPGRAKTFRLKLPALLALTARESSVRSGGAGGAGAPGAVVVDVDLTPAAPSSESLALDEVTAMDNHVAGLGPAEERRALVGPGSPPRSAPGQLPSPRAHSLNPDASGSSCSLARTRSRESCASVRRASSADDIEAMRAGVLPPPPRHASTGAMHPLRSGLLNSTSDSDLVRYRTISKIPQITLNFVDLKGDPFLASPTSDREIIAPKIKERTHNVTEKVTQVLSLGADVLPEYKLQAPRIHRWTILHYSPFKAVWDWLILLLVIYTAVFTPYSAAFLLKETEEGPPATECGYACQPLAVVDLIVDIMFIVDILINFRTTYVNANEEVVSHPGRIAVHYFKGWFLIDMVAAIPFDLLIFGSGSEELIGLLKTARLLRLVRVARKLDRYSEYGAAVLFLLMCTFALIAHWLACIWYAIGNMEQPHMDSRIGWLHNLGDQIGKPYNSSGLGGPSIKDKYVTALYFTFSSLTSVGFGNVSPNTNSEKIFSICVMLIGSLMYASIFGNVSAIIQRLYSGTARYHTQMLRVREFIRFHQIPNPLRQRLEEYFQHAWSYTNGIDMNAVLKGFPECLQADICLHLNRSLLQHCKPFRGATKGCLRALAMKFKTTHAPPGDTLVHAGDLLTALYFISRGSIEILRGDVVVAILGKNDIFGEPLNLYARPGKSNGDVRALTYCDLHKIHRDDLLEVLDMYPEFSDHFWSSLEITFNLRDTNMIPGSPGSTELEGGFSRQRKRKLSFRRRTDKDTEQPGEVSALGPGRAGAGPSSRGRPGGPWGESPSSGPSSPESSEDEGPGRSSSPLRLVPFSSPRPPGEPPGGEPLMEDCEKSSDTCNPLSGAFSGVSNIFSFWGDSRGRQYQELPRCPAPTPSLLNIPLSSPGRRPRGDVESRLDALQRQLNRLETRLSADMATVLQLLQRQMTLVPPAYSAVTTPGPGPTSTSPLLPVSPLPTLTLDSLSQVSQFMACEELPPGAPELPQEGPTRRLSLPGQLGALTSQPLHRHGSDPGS

Row | SMILES | hERG current change (%, negative = inhibition) at 10uM [%]
1 | Fc1ccccc1-c1nc(NCc2ccco2)c2ccccc2n1 | -2.1
2 | Cc1ccc(S(=O)(=O)N2CCN(CCc3ccccc3)CC2)c(C)c1.O=C(O)C(=O)O | -6.72
3 | CS(=O)(=O)N(CCc1ccccc1)CC(=O)NCc1ccncc1 | -4.22
4 | COc1ccc(C(=O)Nc2nc(C)c(C)s2)cc1OC | -22.6
5 | C[C@H](NS(=O)(=O)c1ccccc1)C(=O)OCC(=O)NC(=O)Nc1ccc2c(c1)OCCO2 | 5.22
6 | COc1ccc(Oc2nc(-c3ccccn3)nc3ccccc23)cc1 | -31.9
7 | Cc1ccc(C)c(-n2c(-c3ccc4c(c3)OCO4)n[nH]c2=S)c1 | 6.65
8 | O=C(NN1C(=O)C2C3C=CC(C3)C2C1=O)C(O)c1ccccc1 (centres unmarked) | 12.4
9 | Cc1cc(NC(=O)CN2C(=O)/C(=C/c3ccccc3F)SC2=S)no1 | 9
10 | O=C(Oc1cccc(NC(=O)c2ccco2)c1)c1cccc(S(=O)(=O)N2CCCC2)c1 | -30.8
11 | O=C(NCCCN1CCCC1)c1ccc(CS(=O)(=O)c2ccc(Br)cc2)o1 | -16.7
12 | c1ccc(-c2ccccc2-c2nc(-c3cccnc3)no2)cc1 | -2.34
13 | COc1cc(OC)c(C=O)c(OC(=O)N(C)C)c1 | 3.32
14 | CC(C)NC(=O)CCN1C(=O)c2ccccc2Sc2ncccc21 | -1.32
15 | COC(=O)[C@@H]1C[C@@]2(O)[C@@H](O)[C@@H](O)[C@@H](O)C[C@H]2N1Cc1ccc(C)s1 | 18.8
16 | O=C(Nc1ccc(N2CCCCC2)cc1)c1ccc(F)cc1 | 15.7
17 | S=C1N(c2ccccc2)C(c2ccccc2)N2CCCN12 (centres unmarked) | 3.73
18 | Cc1ccccc1CC(=O)NC1CCCCCC1 | 19.1
19 | O=C(Nc1ccc(F)cc1F)C1CC(=O)N(Cc2ccccc2)C1 (centres unmarked) | -3.13
20 | COc1cccc(N(CC(=O)NCCSc2ccccn2)S(=O)(=O)c2ccccc2)c1 | -20.5
21 | COc1ccc(CCn2nnnc2C(c2ccc(Cl)cc2)N2CCN(C)CC2)cc1OC.Cl (centres unmarked) | -11.6
22 | COc1ccc(CNC(=O)c2ccc(=O)oc2)cc1OC | 10.3

Row | SMILES | hERG current change (%, negative = inhibition) at 10uM [%]
23 | CCc1ccc(C(=O)NNc2cc(Cl)cc(Cl)c2)cc1 | 7
24 | CCN(CC(=O)Nc1c(F)cccc1F)C(=O)CCCc1cccs1 | -15.4
25 | Cc1[nH]c2ccccc2c1C(=O)CSc1ccccn1 | -7.42
26 | COc1cc2c3c(c1)/C(=C1/SC(NC(C)=O)=NC1=O)C(=O)N3C(C)(C)C=C2C | -1.47
27 | CC(=O)Nc1ccc(S(=O)(=O)NCCC(=O)Nc2cc(C)ccn2)cc1 | 7.68
28 | Cc1cc(C)c(NC(=O)C2CC(=O)N(Cc3ccccc3)C2)c(C)c1 (centres unmarked) | 8.57
29 | CSc1cccc(NC(=O)CN(c2ccc(C)cc2C)S(C)(=O)=O)c1 | -7.15
30 | Cc1ccc2[nH]c3nc(SCC#N)nnc3c2c1 | 18.8
31 | COc1cccc(CN2CCNC(=O)C2CC(=O)N(C)C2CCOCC2)c1OC (centres unmarked) | 8.49
32 | Nc1nc(-c2ccc([N+](=O)[O-])cc2)c(C(=O)Nc2ccc(Cl)cc2)s1 | 12.4
33 | CCCSc1nc(=S)n(Cc2ccccc2)c(C)c1C(C)=O | -25.3
34 | c1ccc(C2CCCN(Cc3nc(CC4CC4)no3)CC2)cc1 (centres unmarked) | 2.97
35 | COc1ccc(N2CC(NS(=O)(=O)c3ccc4ccccc4c3)CC2=O)cc1 (centres unmarked) | 0.699
36 | Nc1ccc2nc3c(=O)n(C4CCCCC4)c(=O)[nH]c3nc2c1 | -0.914
37 | O=c1[nH]n2cc(-n3cc([N+](=O)[O-])cn3)cnc2c1Br | 10.6
38 | O=C(Cn1nc(C(=O)O)c2ccccc2c1=O)Nc1ccc(F)cc1F | 11.8
39 | O=S(=O)(Nc1nc2ccccc2nc1Cl)c1ccc2c(c1)OCCO2 | 6.88
40 | COc1ccc(/C=N/OCC(=O)N(Cc2ccc(OC)cc2)c2ccccc2C(=O)O)cc1 | 1.64
41 | Cc1ccc(NC(=O)c2ccco2)c(NC(=O)COc2ccccc2)c1 | -19.6
42 | CC(C)c1ccc(CNCc2ccccc2)cc1.Cl | -25.2
43 | Cc1ccc(/C=C2\Oc3cc(OCC(=O)NN)ccc3C2=O)o1 | 4.58
44 | Cc1cc(C)cc(OCC(=O)Nc2ccccc2N2CCCCC2)c1 | -0.491
